The full ranking holds about 2,900 compounds; the median of “IRF Lucia reporter activity, fold change vs agonist alone” is about 0.9, and the highest 2% start at about 2.8. Some of the results follow.
Columns and labels:
RAW-Dual [1] = assay: IRF Lucia reporter activity, fold change vs agonist alone; higher = enhanced IRF activity; details: library stock concentration (final ~1000-fold dilution): 10 mM; cytotoxicity flag (confluency mask): not cytotoxic; agonist: MPLA (TLR4) […]
Outline: (§1)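 Reporter activity is given as fold change relative to agonist-alone wells. To measure it, 50 nL of library stock was pin-tooled onto RAW-Dual macrophages (50,000 cells/well, DMEM, 384-well plates), a PRR agonist followed 1 h later, and cells stayed at 37 °C, 5% CO2. Twenty hours on, supernatant was assayed for IRF (QuantiLuc luminescence) and NF-κB (QuantiBlue, 620 nm absorbance), and wells under 70% of agonist-control IncuCyte confluency in both mask sets were marked cytotoxic.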

RAW-Dual [2] = assay: IRF Lucia reporter activity, fold change vs agonist alone; cytotoxicity flag (confluency mask): not cytotoxic; higher = enhanced IRF activity
Outline: as §1

[3] = agonist: 3'3'-cGAMP (STING) 10 ug/mL

| Structure (SMILES) | IRF Lucia reporter activity (RAW-Dual [1]) | IRF Lucia reporter activity (RAW-Dual [2]; [3]) | IRF Lucia reporter activity (RAW-Dual [2]; agonist: LPS (TLR4) 0.1 ug/mL) |
| --- | --- | --- | --- |
| Fc1ccc(Cn2c(Cl)nc3ccccc32)cc1 | 1.51 | – | – |
| Fc1ccc(Cn2c(Cl)nc3ccccc32)cc1 (library stock concentration (final ~1000-fold dilution): 10 mM) | – | 1.25 | 1.95 |
| C[C@H]1CC[C@@]2(OC1)O[C@H]1C[C@H]3[C@@H]4CC[C@@H]5C[C@@H](O)CC[C@]5(C)[C@H]4CC[C@]3(C)[C@H]1[C@@H]2C (library stock concentration (final ~1000-fold dilution): 10 mM) | – | 0.937 | 1.18 |
| CC(Cn1ccc(-c2ccc(C#N)c(Cl)c2)n1)NC(=O)c1cc(C(C)O)[nH]n1 (centres undefined) (library stock concentration (final ~1000-fold dilution): 10 mM) | – | 0.982 | 1.09 |
| CC(Cn1ccc(-c2ccc(C#N)c(Cl)c2)n1)NC(=O)c1cc(C(C)O)[nH]n1 (centres undefined) | 1.02 | – | – |
| NC(=O)C1CCCc2c1[nH]c1ccc(Cl)cc21 (centres undefined) (library stock concentration (final ~1000-fold dilution): 10 mM) | – | 1.1 | 0.919 |
| NC(=O)C1CCCc2c1[nH]c1ccc(Cl)cc21 (centres undefined) | 0.912 | – | – |
| CC1CN(CC(=O)Nc2ccc3c(c2)Cc2cccc(-c4cc(=O)cc(N5CCOCC5)o4)c2S3)CC(C)O1 (centres undefined) (library stock concentration (final ~1000-fold dilution): 10 mM) | – | 0.508 | 6.62 |
| CC1CN(CC(=O)Nc2ccc3c(c2)Cc2cccc(-c4cc(=O)cc(N5CCOCC5)o4)c2S3)CC(C)O1 (centres undefined) | 5.96 | – | – |
| Cc1ccc(Nc2nccc(N(C)c3ccc4c(C)n(C)nc4c3)n2)cc1S(N)(=O)=O.Cl (library stock concentration (final ~1000-fold dilution): 10 mM) | – | 0.0722 | 0.446 |
| Cc1ccc(Nc2nccc(N(C)c3ccc4c(C)n(C)nc4c3)n2)cc1S(N)(=O)=O.Cl | 0.646 | – | – |
| CCOC(=O)C1=C(C)NC(=S)NC1c1cccc(O)c1 (centres undefined) (library stock concentration (final ~1000-fold dilution): 10 mM) | – | 1.09 | 1.02 |
| CCn1c(N)c(C(=O)NC)c(=O)c2ccc(C#CC(C)(O)COC)nc21 (centres undefined) | 0.874 | – | – |
| CCn1c(N)c(C(=O)NC)c(=O)c2ccc(C#CC(C)(O)COC)nc21 (centres undefined) (library stock concentration (final ~1000-fold dilution): 10 mM) | – | 0.841 | 0.781 |
| OCCn1cc(-c2ccc3c(c2)CC/C3=N\O)c(-c2ccncc2)n1 (library stock concentration (final ~1000-fold dilution): 10 mM) | – | 0.614 | 0.658 |
| OCCn1cc(-c2ccc3c(c2)CC/C3=N\O)c(-c2ccncc2)n1 | 0.784 | – | – |
| Nc1nc(OCC2CCCCC2)c2nc[nH]c2n1 (library stock concentration (final ~1000-fold dilution): 10 mM) | – | 0.486 | 0.801 |
| Nc1nc(OCC2CCCCC2)c2nc[nH]c2n1 | 0.754 | – | – |
| CC1COC2(CCN(c3nc(=O)c4cc(C(F)(F)F)cc([N+](=O)[O-])c4s3)CC2)O1 (centres undefined) | 1.05 | – | – |
| CC1COC2(CCN(c3nc(=O)c4cc(C(F)(F)F)cc([N+](=O)[O-])c4s3)CC2)O1 (centres undefined) (library stock concentration (final ~1000-fold dilution): 10 mM) | – | 0.953 | 1.18 |
| O=C1C(Cl)=C(N2CCOCC2)C(=O)N1c1ccc(Cl)c(Cl)c1 (library stock concentration (final ~1000-fold dilution): 10 mM) | – | 0.55 | 0.547 |
| Cc1ccc(-c2cc(C(F)(F)F)nn2-c2ccc(S(N)(=O)=O)cc2)cc1 (library stock concentration (final ~1000-fold dilution): 10 mM) | – | 0.764 | 1.05 |
| Cc1ccc(-c2cc(C(F)(F)F)nn2-c2ccc(S(N)(=O)=O)cc2)cc1 | 0.709 | – | – |
| CCCCCCCCCC(=O)NC(Cc1c[nH]c2ccccc12)C(=O)NC(CC(N)=O)C(=O)NC(CC(=O)O)C(=O)NC1C(=O)NCC(=O)NC(CCCN)C(=O)NC(CC(=O)O)C(=O)NC(C)C(=O)NC(CC(=O)O)C(=O)NCC(=O)NC(CO)C(=O)NC(C(C)CC(=O)O)C(=O)NC(CC(=O)c2ccccc2N)C(=O)OC1C (centres undefined) (library stock concentration (final ~1000-fold dilution): 10 mM) | – | 0.986 | 0.824 |
| CCCCCCCCCC(=O)NC(Cc1c[nH]c2ccccc12)C(=O)NC(CC(N)=O)C(=O)NC(CC(=O)O)C(=O)NC1C(=O)NCC(=O)NC(CCCN)C(=O)NC(CC(=O)O)C(=O)NC(C)C(=O)NC(CC(=O)O)C(=O)NCC(=O)NC(CO)C(=O)NC(C(C)CC(=O)O)C(=O)NC(CC(=O)c2ccccc2N)C(=O)OC1C (centres undefined) | 0.741 | – | – |

From the supplement of paper PMC10037445
